Source: the supplement of paper PMC3334620
In all, about 33,000 sequences were measured (“E-score (-0.5 to 0.5)”: median about -0.01, highest 2% from about 0.26 on). The list shows a part of the results.

The sequences below were run against Ste12 (UniProt P13574) (assay: PBM E-score (8-mer binding enrichment) (E-score (-0.5 to 0.5)); higher = stronger / more preferred TF binding; most listed sequences are background and not binding sites). Settings: protein concentration: 200 nM; construct: GST-DNA-binding domain.
Summary of the method: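 E-scores (a modified Wilcoxon-Mann-Whitney statistic) were assigned by the Universal PBM Analysis Suite to every ungapped eight-base word pooled with its reverse complement. The input came from universal all-10-mer Agilent arrays made double-stranded by primer extension and probed with GST-tagged yeast transcription factors at about 100-200 nM. Fluorescent anti-GST detected bound protein, and masliner normalised the scans.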

Row | Sequence | PBM E-score
1 | GAGGGAGA | -0.134
2 | TAACATGA | 0.098
3 | TCGGTGAA | 0.0553
4 | AAGCTTAC | -0.066
5 | CGCAACCG | -0.135
6 | GATTTAGA | 0.173
7 | GCGAGTTA | 0.0798
8 | CAGCTTCG | -0.167
9 | GACTTCGA | -0.139
10 | ATAGTAAG | 0.0906
11 | CACGTACA | 0.0883
12 | AGTCCGCC | -0.0179
13 | CGGGGTGA | 0.198
14 | AGCGAGGC | -0.16
15 | ATAGGATG | 0.149
16 | AATCTATA | 0.186
17 | AAGCGTAC | -0.237
18 | AAACTTTA | 0.294
19 | AGCCGGAT | -0.0521
20 | CACAACAA | 0.0346
21 | AATCTGGT | 0.0602
22 | CGTACTAC | -0.0876

Row | Sequence | PBM E-score
23 | CCTGAGGA | -0.0103
24 | CAAGTGGA | -0.0357
25 | AGTTTTTA | 0.142
26 | AGGAAGCA | -0.0194
27 | AGATTCAT | -0.106
28 | CAGTCGCC | -0.0794
29 | TGAACCCA | -0.0458
30 | GAAACTTA | 0.26
31 | CGTAGAAA | -0.0538
32 | CTTGGACA | -0.127
33 | AGCCCTAT | -0.115
34 | CTTACACC | 0.016
35 | AAAAACAT | 0.241
36 | ACCCCTAC | -0.0459
37 | AATAGGTG | 0.0143
38 | ACACCCGC | 0.191
39 | GACCAAAC | 0.11
40 | TAGTCCGA | 0.124
41 | GCTCAGCA | -0.0833
42 | AAGTATTA | 0.102
43 | CCAAATGG | -0.145
44 | CGGTTCGC | -0.0544

Row | Sequence | PBM E-score
45 | AAGGCGTA | -0.167
46 | GTGGTTGA | -0.0806
47 | AGATGGAA | 0.088
48 | AATTTAGT | 0.203
49 | TGCGGCCA | -0.00812
50 | CGAGCAGC | -0.0446
51 | GAGGATCA | 0.0564
52 | GCTTCGAC | -0.0907
53 | ACGTAGGG | -0.298
54 | AGTCAGGG | -0.269
55 | AGCCTTGC | -0.0381
56 | ACTATGTC | -0.194
57 | ATAGGCTG | -0.00172
58 | CCCAGACG | -0.176
59 | CCCCCACC | -0.207
60 | ATACTCTC | 0.0742
61 | CACGGGAA | -0.223
62 | GAGAACCA | 0.0267
63 | ACTCTGAG | 0.0655
64 | CGGTCGTC | -0.194
65 | ACCATGGT | -0.205
66 | CCCCTTTA | -0.325

Row | Sequence | PBM E-score
67 | CGGGAAAC | 0.166
68 | ATACCCCC | 0.0202
69 | GGCGGAAA | 0.116
70 | AGGCTCAG | -0.0571
71 | CCTAGGTA | 0.0058
72 | ACGCGCCG | -0.014
73 | AATCCATG | 0.0722
74 | AGAGGAGC | -0.244
75 | AACAGTTA | 0.111
76 | CCGCGAAC | -0.0224
77 | ACTTCATG | -0.0938
78 | CACCCGTA | -0.165
79 | AAATTCAT | 0.0981
80 | ATCGTCCG | -0.0253
81 | CCTCATGC | -0.21
82 | CACCCTGG | -0.0322
83 | ACAGCCAC | -0.0241
84 | ATTGCAGA | 0.0943
85 | CCGTAACC | -0.0242
86 | AGGGCACT | -0.131
